Source: the supplement of paper PMC10338343
± gives the standard deviation. In all, about 6,600 sequences were measured (“pre-steady-state target cleavage rate”: median about 0.07, highest 2% from about 0.72 on). This is a selection; strong and weak results do not stand in their true shares.

Each sequence was assayed on MIWI (PIWIL1) piRISC loaded with Kctd7 piRNA (30 nt) (assay: pre-steady-state target cleavage rate (min^-1); MIWI and MILI are mouse PIWI proteins and EfPiwi is from a freshwater sponge; tags in brackets are library labels; higher = faster piRNA-guided slicing of the target). Conditions: guide: Kctd7 piRNA 5'p-UGUUAAUCUCUCAGAGAAGGUGACAGUGAU; auxiliary factor: 500 nM mouse GTSF1.
Procedure, shortened: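 Cleave-'n-Seq reactions paired 0.1 nM transcribed, DNA-blocked target RNA library with 1 nM active affinity-purified piRISC holding one synthetic guide, plus or minus 500 nM GTSF1 partner protein, in HEPES–potassium acetate buffer at 33 °C for 0–8 or 0–960 min. After sequencing of uncleaved targets and normalisation to depth and weakly complementary targets, the pre-steady-state cleavage rate was taken from a burst-and-steady-state fit. Three trials were pooled, and k3 was capped at 0.0001 min^-1.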

Point of comparison: AUCACUGUCACCAACUCUGAGAGAUUAAGA, “pre-steady-state target cleavage rate” value 0.0836 ± 0.015. Against it:
- UUCACUGUCACCUUCAGUGAGAGAUUAACA — within error, 0.0717 ± 0.013
- UAGUGACAGUGGUUUCUCUGAGAGAUUAACA — lower, 0.00321 ± 0.0029
- UAGUGACUCACCUUCUCUGAGAGAUAAACA — higher, 0.303 ± 0.042
- UAGUGACAGUGCUUCUCUGAGAGUAAAACA — lower, < 0.0001
- UAGACUGUCACCUUCUCUGAGAGUAAAACA — lower, 0.0358 ± 0.01
- UAGACUGUCACCUACUGUGAGAGAUUAACA — higher, 0.38 ± 0.025
- AUCACUCUCACCUACUCUGAGAGAUUAACA — higher, 0.464 ± 0.027
- UAGACACACACCUUCUCUGAGAGAUAUUGA — lower, 0.0297 ± 0.012
- UAGUCUGUCACCUACUCUCAGAGAUUAACA — within error, 0.0648 ± 0.0097
- UAGUGUGUGACCUUCUCUCAGAGAUUAACA — lower, 0.0461 ± 0.01
- UAGUGAGUGACCAUCUCUGAGAGAUUAACA — higher, 0.266 ± 0.021
- UAGUCUGUCACCUUCACUGAGAGAUUUACA — higher, 0.267 ± 0.038
- UACACUGUCACCUACUCUGAGAGAUUAUCA — higher, 0.227 ± 0.033
- UAGUCUGUCUGCUUCUCUGAGAGAUUAAGA — lower, 0.0401 ± 0.0079
- AACACUGUCACCUUCUCUGAGAGAAUAACA — higher, 0.382 ± 0.06
- UAGUCUGUCACCUUCUCUGAGAGCUUAACA — higher, 0.228 ± 0.026
- UUCACUGUCUCCUUCUCUGAGAGAUUAAGA — within error, 0.109 ± 0.021
- UAGUGACUCACCUUGUCUGAGACAUUAACA — higher, 0.132 ± 0.017
- UAGUGAGUCACCUUCAGUGAGAGAUUAAGA — lower, 0.0217 ± 0.0064
- AUCACUGUGACCUUCUCUGAGACAUUAACA — within error, 0.106 ± 0.01
- UAGUGAGAGACCUUCUCUGAGAGAUUAAGA — within error, 0.105 ± 0.021
- UAGUGACACUCCUUCUCUGAGAGAAUAACA — lower, 0.032 ± 0.0072
- UAGUGACAGUGCUUCUCUGAGAUAUUAACA — lower, 0.00339 ± 0.0022
- UUCACUGUGACCUUCUCUGAGAGUUUAACA — higher, 0.34 ± 0.048
- AUCACUGUCACCAUCUGUGAGAGAUUAACA — higher, 0.469 ± 0.03
- UACACUGUCAGCUUCUCUGAGAGAUUAAGA — within error, 0.0986 ± 0.015
- UAGACUGUCACCUUCACUCAGAGAUUAACA — lower, 0.027 ± 0.005
- AUCACUGUCACGUUCUCUGAGAGAUUUUGA — lower, 0.00793 ± 0.0038
- UAGUGACAGACCUUGUCUGAGACAUUAACA — lower, 0.0361 ± 0.0097
- UAGUCUGUCACCUUCUCUGAGAGAGUAACA — higher, 0.376 ± 0.044
- UAGUGUGACACCUUCUCUCAGAGAUUAACA — lower, 0.0516 ± 0.0075
- UAGUGUGUCACCUUCUCUGAGAGAUAAAGA — within error, 0.0553 ± 0.016
- UACACUGUCACCUUCUCUGAGAGAUAUUCA — higher, 0.218 ± 0.059
- UAGUGAGUCACCUUCUCUGUGAGAUUUACA — higher, 0.115 ± 0.013
- UAGUGACUCACCUUUUCUGAGAGAUUAACA — higher, 0.367 ± 0.023
- UAGUGAGUCACCUUCUGAGAGAGAUUAACA — lower, 0.0589 ± 0.0085
- UACACUGUCACCUAGUCUGAGAGAUAUUGA — lower, 0.0101 ± 0.0069
- AUCACUGUCUGGUUCUCUGAGAGAUUAACA — higher, 0.228 ± 0.022
- UACACUCUCACCUUCUCAGAGAGAUUAACA — higher, 0.336 ± 0.028
- UAGAGUGUCACCUUCUCUGAGAGAUUAUCA — higher, 0.384 ± 0.048
- UAGUGACUCACCUUCUCAGUGAGAUUAACA — lower, 0.00575 ± 0.0028
- UAGUGACUCACCCUUCUCUGAGAGAUUAACA — lower, 0.0457 ± 0.0096
- UUCACUGUCACCUCCUCUGAGAGAUUAACA — higher, 0.639 ± 0.021
- UACACUGUCACCUUCUGUGAGUGAUUAACA — lower, 0.0201 ± 0.0064
- UUGACUGUCACCUUCUGUGAGAGAUUAACA — higher, 0.644 ± 0.029
- UAGUGACAGACCUUCUCAGAGAGAUAAACA — lower, 0.00664 ± 0.0036
- UAGUGAGUCACCUUCUGUGAGUGAUUAACA — lower, 0.0122 ± 0.004
- UAGUGACAGUGCUAUCUCUGAGAGAUUAACA — lower, 0.00554 ± 0.0021
- AUCACUGUGACCAUCUCUGAGAGAUUAACA — higher, 0.664 ± 0.04
- UAGUGACAGACCUUCUCUGACAGUUUAACA — lower, 0.00504 ± 0.0029
- AUCACUGUCACCUUCUCUGAGUCUUUAACA — lower, 0.00738 ± 0.0043
- UAGUGACUCACCUUCUGUGAGAGAUUAAGA — within error, 0.088 ± 0.02
- UAGUGAGACACCUUCACUGAGAGAUUAACA — higher, 0.324 ± 0.025
- UAGUGAGGCACCUUCUCUGAGAGAUUAACA — higher, 0.433 ± 0.08
- UAGUGUGUCAGCUUCUCUGAGAGUUUAACA — higher, 0.291 ± 0.036
- UACACUGUGACCUUCUCUGAGAGAAUAACA — higher, 0.126 ± 0.024
- UACUCUGUCACCUUCUCUGAGAGAUUAACA — higher, 0.663 ± 0.03
- UAGUCUGUCACAUUCUCUGAGAGAUUAACA — higher, 0.607 ± 0.03
- UAGACUGUCACCUUCUCUGAGACAAUAACA — lower, 0.00274 ± 0.0022
- UAGUGACACACCUUCUCUGAGAGAUAUAACA — higher, 0.119 ± 0.016
- AUCACUGUCACCUUACUCUGAGAGAUUAACA — higher, 0.592 ± 0.034
- UAGUGAGUCACCUUUUCUGAGAGAUUAACA — higher, 0.492 ± 0.025
- UAGUGACAGUGGAAGACUGAGACGAUUAACA — lower, < 0.0001
- UACACUGUCUGCUUCUCUGAGAGAUAUUGA — lower, 0.00442 ± 0.0031
- AUGUGUGUCACCUUCUCUGAGAGAUUAACA — higher, 0.466 ± 0.023
- UACAGCUGUCACCUUCUCUGAGAGAUUAACA — higher, 0.749 ± 0.036
- UAGUGACACACCUUGUCUGUGAGAUUAACA — within error, 0.0639 ± 0.0061
- UACUACUGUCACCUUCUCUGAGAGAUUAACA — higher, 0.694 ± 0.032
- UUCACUGUCACCUACUCUGAGAGAUUAAGA — higher, 0.17 ± 0.029
- UAGUGACACAGCUUCUCUCAGAGAUUAACA — lower, 0.0115 ± 0.0034
- AUCACUGUCACGUUGUCUGAGAGAUUAACA — higher, 0.326 ± 0.017
